# Measured values published in patent publication US9776999B2, “Antiparisitic dihydroazole compounds and compositions comprising same” (MERIAL, INC., priority 2009, dated 2017).
# Test system: Stomoxys calcitrans
# Assay: Contact activity of compounds against stable flies (Method D)
# Settings: adult flies, treated filter paper; assessment at 24 hours; test concentration of 5 μg/cm2 or less; versus untreated controls
# Description: A small piece of absorbent cotton moistened with 10% sucrose and ten adult flies (Stomoxys calcitrans) were added to each dish. Dishes were capped and held at room temperature. Assessments were performed at 24 hours after infestation in comparison with untreated controls.
compound,measurement,value
"CSCCNC(=O)c1ccc(C2=NOC(c3cc(Cl)cc(Cl)c3)(C(F)(F)F)C2)n2cccc12 (stereo not shown) [Compound 1.013, 5-[5-(3,5-Dichlorophenyl)-5-trifluoromethyl-4,5-dihydroisoxazol-3-yl]-indolizine-8-carboxylic acid (2-methylthioethyl)-amide]","control (Stomoxys calcitrans, contact)",at least 80%
